Some of the results follow.
What was measured:
Test in all cases: glycan array binding signal (z-score within array); higher = stronger binding
Conditions in all cases: glycan notation: IUPAC condensed, linker removed
[1] = biological target: Gal(b1-4)GlcNAc(b1-3)Gal(b1-3)GlcNAc
Method in brief: (§1)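 Arrays were curated from the Consortium for Functional Glycomics database, 3228 in total, and kept only where the protein sequence was available. Binding is expressed as a within-array Z-score. This score was averaged across arrays of the same protein sequence at different concentrations or buffers and across linkers, and negative values can be read as non-binding.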

[2] = biological target: Gal(b1-4)GlcNAc(b1-3)Gal(b1-4)Glc
Method in brief: as §1

[3] = biological target: Gal(b1-4)GlcNAc(b1-3)Gal(b1-4)GlcNAc
Method in brief: as §1

[4] = biological target: Gal(b1-4)GlcNAc(b1-3)Gal(b1-4)GlcNAc(b1-2)Man(a1-3)[Gal(b1-4)GlcNAc(b1-3)Gal(b1-4)GlcNAc(b1-2)Man(a1-6)]Man(b1-4)GlcNAc(b1-4)GlcNAc
Method in brief: as §1

[5] = biological target: Gal(b1-4)GlcNAc(b1-3)Gal(b1-4)GlcNAc(b1-2)Man(a1-3)[Gal(b1-4)GlcNAc(b1-3)Gal(b1-4)GlcNAc(b1-2)Man(a1-6)]Man(b1-4)GlcNAc(b1-4)[Fuc(a1-6)]GlcNAc
Method in brief: as §1

[6] = biological target: Gal(b1-4)GlcNAc(b1-3)Gal(b1-4)GlcNAc(b1-2)[Gal(b1-4)GlcNAc(b1-3)Gal(b1-4)GlcNAc(b1-6)]Man(a1-6)[Gal(b1-4)GlcNAc(b1-3)Gal(b1-4)GlcNAc(b1-2)Man(a1-3)]Man(b1-4)GlcNAc(b1-4)GlcNAc
Method in brief: as §1

[7] = biological target: Gal(b1-4)GlcNAc(b1-3)Gal(b1-4)GlcNAc(b1-2)[Gal(b1-4)GlcNAc(b1-3)Gal(b1-4)GlcNAc(b1-6)]Man(a1-6)[Gal(b1-4)GlcNAc(b1-3)Gal(b1-4)GlcNAc(b1-2)Man(a1-3)]Man(b1-4)GlcNAc(b1-4)[Fuc(a1-6)]GlcNAc
Method in brief: as §1

[8] = biological target: Gal(b1-4)GlcNAc(b1-3)Gal(b1-4)GlcNAc(b1-3)Gal(b1-4)GlcNAc
Method in brief: as §1

[9] = biological target: Gal(b1-4)GlcNAc(b1-3)Gal(b1-4)GlcNAc(b1-3)Gal(b1-4)GlcNAc(b1-2)Man(a1-3)[Gal(b1-4)GlcNAc(b1-3)Gal(b1-4)GlcNAc(b1-3)Gal(b1-4)GlcNAc(b1-2)Man(a1-6)]Man(b1-4)GlcNAc(b1-4)GlcNAc
Method in brief: as §1

[10] = biological target: Gal(b1-4)GlcNAc(b1-3)Gal(b1-4)GlcNAc(b1-3)Gal(b1-4)GlcNAc(b1-2)Man(a1-3)[Gal(b1-4)GlcNAc(b1-3)Gal(b1-4)GlcNAc(b1-3)Gal(b1-4)GlcNAc(b1-2)Man(a1-6)]Man(b1-4)GlcNAc(b1-4)[Fuc(a1-6)]GlcNAc
Method in brief: as §1

[11] = biological target: Gal(b1-4)GlcNAc(b1-3)Gal(b1-4)GlcNAc(b1-3)Gal(b1-4)GlcNAc(b1-2)[Gal(b1-4)GlcNAc(b1-3)Gal(b1-4)GlcNAc(b1-3)Gal(b1-4)GlcNAc(b1-6)]Man(a1-6)[Gal(b1-4)GlcNAc(b1-3)Gal(b1-4)GlcNAc(b1-3)Gal(b1-4)GlcNAc(b1-2)Man(a1-3)]Man(b1-4)GlcNAc(b1-4)[Fuc(a1-6)]GlcNAc
Method in brief: as §1

[12] = biological target: Gal(b1-4)GlcNAc(b1-3)Gal(b1-4)GlcNAc(b1-3)Gal(b1-4)GlcNAc(b1-3)Gal(b1-4)GlcNAc(b1-2)Man(a1-3)[Gal(b1-4)GlcNAc(b1-3)Gal(b1-4)GlcNAc(b1-3)Gal(b1-4)GlcNAc(b1-3)Gal(b1-4)GlcNAc(b1-2)Man(a1-6)]Man(b1-4)GlcNAc(b1-4)GlcNAc
Method in brief: as §1

[13] = biological target: Gal(b1-4)GlcNAc(b1-3)Gal(b1-4)GlcNAc(b1-3)Gal(b1-4)GlcNAc(b1-3)Gal(b1-4)GlcNAc(b1-2)Man(a1-3)[Gal(b1-4)GlcNAc(b1-3)Gal(b1-4)GlcNAc(b1-3)Gal(b1-4)GlcNAc(b1-3)Gal(b1-4)GlcNAc(b1-2)Man(a1-6)]Man(b1-4)GlcNAc(b1-4)[Fuc(a1-6)]GlcNAc
Method in brief: as §1

[14] = biological target: Gal(b1-4)GlcNAc(b1-3)Gal(b1-4)GlcNAc(b1-3)Gal(b1-4)GlcNAc(b1-3)Gal(b1-4)GlcNAc(b1-2)[Gal(b1-4)GlcNAc(b1-3)Gal(b1-4)GlcNAc(b1-3)Gal(b1-4)GlcNAc(b1-3)Gal(b1-4)GlcNAc(b1-6)]Man(a1-6)[Gal(b1-4)GlcNAc(b1-3)Gal(b1-4)GlcNAc(b1-3)Gal(b1-4)GlcNAc(b1-3)Gal(b1-4)GlcNAc(b1-2)Man(a1-3)]Man(b1-4)GlcNAc(b1-4)[Fuc(a1-6)]GlcNAc
Method in brief: as §1

[15] = biological target: Gal(b1-4)GlcNAc(b1-3)Gal(b1-4)GlcNAc(b1-3)Gal(b1-4)GlcNAc(b1-3)Gal(b1-4)GlcNAc(b1-3)Gal(b1-4)GlcNAc(b1-2)Man(a1-3)[Gal(b1-4)GlcNAc(b1-3)Gal(b1-4)GlcNAc(b1-3)Gal(b1-4)GlcNAc(b1-3)Gal(b1-4)GlcNAc(b1-3)Gal(b1-4)GlcNAc(b1-2)Man(a1-6)]Man(b1-4)GlcNAc(b1-4)GlcNAc
Method in brief: as §1

[16] = biological target: Gal(b1-4)GlcNAc(b1-3)Gal(b1-4)GlcNAc(b1-3)Gal(b1-4)GlcNAc(b1-3)Gal(b1-4)GlcNAc(b1-3)Gal(b1-4)GlcNAc(b1-2)Man(a1-3)[Gal(b1-4)GlcNAc(b1-3)Gal(b1-4)GlcNAc(b1-3)Gal(b1-4)GlcNAc(b1-3)Gal(b1-4)GlcNAc(b1-3)Gal(b1-4)GlcNAc(b1-2)Man(a1-6)]Man(b1-4)GlcNAc(b1-4)[Fuc(a1-6)]GlcNAc
Method in brief: as §1

[17] = biological target: Gal(b1-4)GlcNAc(b1-3)Gal(b1-4)GlcNAc(b1-3)Gal(b1-4)GlcNAc(b1-3)Gal(b1-4)GlcNAc(b1-3)Gal(b1-4)GlcNAc(b1-2)[Gal(b1-4)GlcNAc(b1-3)Gal(b1-4)GlcNAc(b1-3)Gal(b1-4)GlcNAc(b1-3)Gal(b1-4)GlcNAc(b1-3)Gal(b1-4)GlcNAc(b1-6)]Man(a1-6)[Gal(b1-4)GlcNAc(b1-3)Gal(b1-4)GlcNAc(b1-3)Gal(b1-4)GlcNAc(b1-3)Gal(b1-4)GlcNAc(b1-3)Gal(b1-4)GlcNAc(b1-2)Man(a1-3)]Man(b1-4)GlcNAc(b1-4)[Fuc(a1-6)]GlcNAc
Method in brief: as §1

[18] = biological target: Gal(b1-4)GlcNAc(b1-3)Gal(b1-4)GlcNAc(b1-3)Gal(b1-4)GlcNAc(b1-3)Gal(b1-4)GlcNAc(b1-3)Gal(b1-4)GlcNAc(b1-3)Gal(b1-4)GlcNAc(b1-2)Man(a1-3)[Gal(b1-4)GlcNAc(b1-3)Gal(b1-4)GlcNAc(b1-3)Gal(b1-4)GlcNAc(b1-3)Gal(b1-4)GlcNAc(b1-3)Gal(b1-4)GlcNAc(b1-3)Gal(b1-4)GlcNAc(b1-2)Man(a1-6)]Man(b1-4)GlcNAc(b1-4)GlcNAc
Method in brief: as §1

[19] = biological target: Gal(b1-4)GlcNAc(b1-3)Gal(b1-4)GlcNAc(b1-3)GalNAc
Method in brief: as §1

B1: MGL2 (Mus musculus), Q8JZN1 (protein)
chain: MTMRYENFQNLEREEKNQEMRNGDKKGGMESPKFALIPSQSFLWRILSWTHLLLFSLGLSLLLLVVISVIGSQNSQLRRDLGTLRAILDNTTSKIKAEFQSLDSRADNFEKGISSLKVDVEDHRQELQAGRDLSQKVTSLESTLEKREQALKTDLSDLTDHVQQLETDLKALTCQLANLKNNGSEVACCPLHWTEHEGSCYWFSESEKSWPEADKYCRLENSHLVVVNSLEEQNFLQNRLANVLSWMGLTDQNGPWRWVDGTDFDKGFKNWRPLQPDNWHGHMLGGGEDCAHFSYDGRWNDDVCQRHYHWICETELGKASSAHSPQLIASVP
[1]
  glycan array binding signal (z-score): -0.18
[2]
  glycan array binding signal (z-score): -0.18
[3]
  glycan array binding signal (z-score): -0.11
[4]
  glycan array binding signal (z-score): 0.171
[5]
  glycan array binding signal (z-score): 0.058
[6]
  glycan array binding signal (z-score): 0.108
[7]
  glycan array binding signal (z-score): -0.065
[8]
  glycan array binding signal (z-score): -0.241
[9]
  glycan array binding signal (z-score): 0.265
[10]
  glycan array binding signal (z-score): 0.042
[11]
  glycan array binding signal (z-score): -0.16
[12]
  glycan array binding signal (z-score): -0.025
[13]
  glycan array binding signal (z-score): 0.082
[14]
  glycan array binding signal (z-score): -0.105
[15]
  glycan array binding signal (z-score): -0.062
[16]
  glycan array binding signal (z-score): 0.33
[17]
  glycan array binding signal (z-score): -0.133
[18]
  glycan array binding signal (z-score): -0.201
[19]
  glycan array binding signal (z-score): 0.16

Reference: the supplement of paper PMC8728848
